In general, % Inhibition refers to the change of the read-out against control, counted positive when it falls.

Experimental findings from ChEMBL document CHEMBL4888484, “Replenishing the malaria drug discovery pipeline: Screening and hit evaluation of the MMV Hit Generation Library 1 (HGL1) against asexual blood stage Plasmodium falciparum ,using a nano luciferase reporter read-out” (2022) are described below.

The test has as its system Plasmodium falciparum. In words: Primary screen in NF54 nanoGlo assay, in single point, at 2uM, 72h; a lower Z score goes with more inhibition. The format is functional, Erythrocyte. The following applies: timepoint 72 hour.

Several values for one entry are separate records, joined by “and”; a condition that tells them apart may be missing. Equal values may be shown once. Screen size: about 150,000 compounds; about 540 (0.36%) showed an effect of 50% or more. Some of the results follow.

Turning to `CNc1nc(NCC(C)(C)OC)ncc1Br`, the “% Inhibition” value is -13% and the Z score was 1.49.
On the same counts, the results for `COc1ccc([C@@H](NCC(=O)N2CCN(Cc3ccc4c(c3)OCO4)CC2)c2ccccc2)cc1` are -10% and 1.1.
On the same counts, the results for `Cc1nnsc1C(=O)NC[C@H](O)c1ccc(-c2ccsc2)cc1` are 3% and -0.38.
On the same counts, the results for `NC(=O)N1CCCN(C(=O)c2cc(C3CC3)on2)CC1` are 0% and 0.01.
With `COc1cc(-c2ncc(C(=O)NC[C@H]3CCCO3)c(N3CCC(C)CC3)n2)cc(OC)c1OC`, the “% Inhibition” value is recorded as -7% and the Z score is given as 1.32.
On the same counts, the results for `COc1ccc(NC(=O)C2=Cc3cc(Cl)cc(OC)c3OC=C2)cc1` are 39% and -5.21.
On the same counts, the results for `Cc1nc2ccc(F)cc2c(=O)n1CC(=O)Nc1cccc(C(=O)c2nccn2C)c1` are -14% and 1.7.
On the same counts, the results for `CCn1nccc1-c1csc(S(=O)(=O)Nc2ccc(OC)c(F)c2)c1` are -11% and 1.39.
Take `CC(=O)N1CCCN(C(=O)CCc2ccccc2F)CC1`: the “% Inhibition” value is -7% and the Z score worked out at 1.02.
On the same counts, the results for `CS(=O)(=O)N1C[C@H]2CC[C@@H](C1)N(C(=O)c1ccc(Cl)s1)C2` are -11% and 1.33.
On the same counts, the results for `COCc1noc(CN[C@@H](C)CCn2ccnc2C)n1` are -3% and 0.63.
On the same counts, the results for `CCN(CCN(C)C)C(=O)c1noc2c1CCCC2` are -3% and 0.54.
In the case of `CCOc1cc2c(cc1CN(C)Cc1noc(C)n1)CCC2`, the “% Inhibition” value is -16% and the Z score is reported as 2.01.
On the same counts, the results for `c1csc([C@H]2CCCN(c3nccc4occc34)C2)n1` are -1% and 0.22.
On the same counts, the results for `Cc1cc(NC(=O)C(C)N2CCOC(c3ccc(F)cc3)C2)no1` (stereo not drawn) are 13% and -1.74.
On the same counts, the results for `COCC[C@]1(c2noc(C3CC3)n2)CCCN(S(=O)(=O)c2ccc3c(c2)CCCC3)C1` are -4% and 0.66.
As to `CCN(C1CCCCC1)S(=O)(=O)c1ccc(N2CCCCS2(=O)=O)cc1`, the “% Inhibition” value is -13% and the Z score amounted to 1.32.
`CCCOc1ccc(CN2C[C@H]3CCN(C)[C@H]3C2)cc1Cl`: the “% Inhibition” value is listed as -15% and the Z score is 1.4.
On the same counts, the results for `O=C(CCN1CCOCC1)N1CCC2(CCCC2)C1` are -7% and 1.31.
As for `Cc1nnc(Cn2cnc3c(C)c(C)ccc3c2=O)[nH]1`, the “% Inhibition” value is recorded as -7% and the Z score is 1.44.
On the same counts, the results for `COc1cc(C(=O)Nc2ccc(Nc3ccc(C)nn3)cc2)cc(OC)c1OC` are 13% and -2.29.
On the same counts, the results for `CC(=O)OCC(=O)Nc1cc(S(C)(=O)=O)ccc1Cl` are -7% and 0.81.
On the same counts, the results for `COc1ccc(S(=O)(=O)N[C@@H](Cn2nccn2)C(C)C)cc1Cl` are -1% and 0.2.
On to `C[C@@H](CCn1ccnc1-c1cc(Cl)ccc1Cl)N1CCN(C)CC1`, for which the “% Inhibition” value was -3% and the Z score is 0.66.
On the same counts, the results for `CCc1ccc(C(=O)N2C[C@@H](NC(C)=O)[C@H](c3nccn3C)C2)o1` are -2% and 0.28.
On the same counts, the results for `CC(=O)NCc1cc2n(n1)CCN(c1ncc(F)c(N3CCCC3)n1)C2` are -7% and 1.24.
In the case of `COCc1ncc(C)n1CCNS(=O)(=O)Cc1ccccc1`, the “% Inhibition” value is reported as 11% and the Z score is reported as -1.32.
Turning to `C#CCN(C(=O)c1cnn(-c2ccncc2)c1C)c1nccs1`, the “% Inhibition” value is reported as 1% and the Z score is -0.15.
On the same counts, the results for `COc1cc(CN2CCC[C@H](c3nccs3)C2)cc(OC)c1OC` are -9% and 1.18.
As to `COc1ccc(Cc2nc(NC(=O)C3(c4ccc(OC)cc4)CCOCC3)n[nH]2)cc1`, where the note is “2 µM”, the “% Inhibition” value is -14% and -6%; the Z score was 1.79 and 0.77.
`C[C@H](O)CN1CCC(CN(C)Cc2ccc(Cl)s2)CC1`: the “% Inhibition” value is 0% and the Z score came out at 0.
Take `COCC1=CCN(C(=O)NCc2cnc(N3CCOCC3)c(F)c2)CC1`: the “% Inhibition” value is -3% and the Z score is 0.29.
Regarding `Cc1nc(CN(C)Cc2cccc(-c3ccncc3)c2)cs1`, the “% Inhibition” value is reported as -1% and the Z score is 0.19.
On the same counts, the results for `C[C@@H](Cc1cc(C(=O)N(C)Cc2cc(-c3ccccc3)on2)on1)c1ccccc1` are -4% and 0.7.
On the same counts, the results for `FC(F)(F)c1cc(-c2ccc(Cl)cc2)nc(Oc2ccc(-c3ccccc3)cc2)n1` are 9% and -1.01.
On the same counts, the results for `Cc1cccc(O[C@@H](C)C(=O)N2CCc3[nH]ncc3C2)c1` are -7% and 0.97.
Turning to `COCCn1ccnc1C1CCN(C(=O)c2nnc3nc(C)cc(C)n23)CC1`, the “% Inhibition” value was -2% and the Z score stood at 0.2.
On the same counts, the results for `O=c1[nH]c2ccccc2cc1-c1cc(NCc2ccccn2)nc2[nH]ccc12` are 3% and -0.57.
Consider `Cc1cc(N)n(CC(=O)N2CCCC[C@H]2c2nc3ccccc3[nH]2)n1`, for which the “% Inhibition” value is -6% and the Z score is 0.89.
On the same counts, the results for `CC(C)(C)NC(=O)C(=O)Nc1nc(-c2ccccn2)cs1` are 10% and -0.99.
On the same counts, the results for `COc1ccc(-c2nc3cc(C)ccn3c2NC(=O)CCC2CCCC2)cc1` are 5% and -0.5.
Regarding `Cn1ccnc1C(=O)N[C@H]1CCc2n[nH]c(=O)n2CC1`, the “% Inhibition” value is on record as -12% and the Z score was 1.86.
On the same counts, the results for `C[C@H](NC(=O)Cc1csc(NC(=O)c2cccc(O)c2)n1)C1CC1` are -16% and 3.43.
On the same counts, the results for `CN(C)C1(CNS(=O)(=O)c2ccc(C(N)=O)cc2)CCCC1` are -9% and 1.39.
In the case of `CN(C)c1nc(N)cc(-c2cccc3cccnc23)n1`, the “% Inhibition” value was 57% and the Z score was -7.96.
On the same counts, the results for `Cn1c(=O)c2c(ncn2Cc2nc(C(C)(C)C)cs2)n(C)c1=O` are 0% and 0.05.
In the case of `CC(C)c1noc(N2CCC(C3(C)OCCO3)CC2)n1`, the “% Inhibition” value is on record as -4% and the Z score worked out at 0.34.
On the same counts, the results for `O=C(c1cnc(O[C@H]2CCOC2)c(Cl)c1)N1CCCC1` are -6% and 1.07.
On the same counts, the results for `Cc1cccc(N2N=C(C(=O)NCCc3cccnc3)CCC2=O)c1` are -12% and 2.24.
On the same counts, the results for `COCCN1CCCN(S(=O)(=O)c2ccc(F)c(F)c2)CC1=O` are -10% and 0.97.
As for `COc1ccc(C(O)(c2ccc(OC)cc2)c2ccc(CN(CCN3CCOCC3)Cc3ccc(C)cc3)o2)cc1`, the “% Inhibition” value is reported as -4% and the Z score is given as 0.58.
On the same counts, the results for `COCc1cc(N[C@@H](Cn2cccn2)c2ccccc2)ncn1` are -6% and 0.59.
With `CC(C)NC(=O)[C@@]1(CCO)CCN(c2ncccn2)C1`, the “% Inhibition” value was -8% and the Z score is listed as 1.59.
Regarding `CCOc1ccc(C(=O)N2CC(N3C(=O)CCC3=O)C2)cc1OCC`, the “% Inhibition” value was 0% and the Z score was -0.05.
On the same counts, the results for `O=C(NCCCn1c(-c2ccncc2)nc2cccnc21)Nc1cccc(Br)c1` are -18% and 1.56.
Turning to `Cc1ccc(NC(=O)CN2CCc3[nH]cnc3C2)nc1`, the “% Inhibition” value was -7% and the Z score was 1.16.
On the same counts, the results for `CCc1ccc2c(c1)c(-c1ccc(Cl)cc1)c(C(=O)NCCN1CCCCC1)n2C` are 3% and -0.41.
On the same counts, the results for `O=C1CC[C@H](C(=O)NC(Cc2ccccc2Cl)c2ccccc2)N1` (stereo partly drawn) are -3% and 0.41.
On the same counts, the results for `FC(F)(F)c1cnc(N2CCOC3(CCOCC3)CC2)s1` are 105% and -19.68.
For the compound `Cc1noc(C)c1C(=O)NCC1(OCCO)CCCC1`, the “% Inhibition” value is -2% and the Z score is 0.21.
For `Cc1ccc(CNC(=O)N2CC(n3ccnc3C)C2)cc1`, the “% Inhibition” value is recorded as -10% and the Z score amounted to 1.28.
On the same counts, the results for `CCN1CCN(c2nc(-c3ccccc3)ncc2C(=O)NC2CCCCC2)CC1` are -4% and 0.79.
On the same counts, the results for `CS(=O)(=O)NC[C@H]1COCCN1C(=O)Nc1nc2ccccc2s1` are -10% and 2.05.
On the same counts, the results for `CCCN(CC(=O)Nc1c(C#N)c(C)c(C)n1C[C@H]1CCCO1)Cc1nnc(-c2cccs2)o1` are -12% and 1.57.
As for `Cc1cc(NC(=O)c2ncc(-c3ccccc3)o2)sn1`, the “% Inhibition” value turned out to be 1% and the Z score is recorded as -0.08.
On the same counts, the results for `COCCN1C[C@]2(CCCN(C(=O)NCc3nc(C(C)C)no3)C2)CCC1=O` are 0% and -0.01.
On the same counts, the results for `CCn1cc2ccc(NC(=O)c3scnc3C3CC3)cc2n1` are -4% and 0.37.
As for `C=CC[C@]1(CO)CCCN(C(=O)c2cc(=O)c(OC)c[nH]2)C1`, the “% Inhibition” value is reported as -9% and the Z score came to 1.76.
Turning to `CC1=C(c2ccccc2)S(=O)(=O)N=C1N1CCC(NC(=O)[C@@H]2CCCO2)CC1`, the “% Inhibition” value is given as -6% and the Z score is 1.1.
On the same counts, the results for `NC(=O)CC1(NC(=O)Cc2ccc(Cl)c(Cl)c2)CCC1` are -9% and 1.36.
On the same counts, the results for `CNC(=O)[C@H](C)Oc1ccc(Br)cc1` are -11% and 1.09.
On the same counts, the results for `Cc1cc2c(N3CCN(C(=O)CN4CCOCC4)CC3)nccc2o1` are -9% and 1.25.
Regarding `O=C(NCCCN1CCOCC1)c1cc2n(n1)CCN(Cc1ccc(F)cc1)C2=O`, the “% Inhibition” value is listed as -2% and the Z score is 0.49.
Regarding `COC(=O)[C@@H]1C[C@@H](NC(=O)c2cc(C(F)(F)F)ccc2Cl)CN1`, the “% Inhibition” value is -6% and the Z score is recorded as 1.15.
Turning to `Cc1ccc(S(=O)(=O)N2CCc3cc(S(=O)(=O)NC4CCCC4)ccc32)cc1C`, the “% Inhibition” value is listed as -11% and the Z score is on record as 1.47.
Turning to `O=c1[nH]c2ccc(Cn3cc([C@H]4CCOC4)nn3)cc2[nH]1`, the “% Inhibition” value was -6% and the Z score was 1.03.
As for `O=C(c1ccc(Cl)s1)N1CC[C@H](Cc2nnc(C3CCOCC3)o2)C1`, the “% Inhibition” value is reported as -8% and the Z score was determined as 1.56.
On the same counts, the results for `O=C(N[C@H](c1ccccc1)c1nnn[nH]1)c1ccccc1C1CCC1` are 1% and -0.13.
On the same counts, the results for `COC1CCN(c2ccc(NC(=O)CNS(=O)(=O)c3c(F)cccc3F)cc2)CC1` are -8% and 1.04.
On the same counts, the results for `Cc1ncc(C(=O)NCc2nc(N(C)C)no2)c(C(C)C)n1` are 2% and -0.25.
As to `O=C(NCCOc1ccccc1)c1cc2n(n1)CCN(Cc1cccc(C(F)(F)F)c1)C2=O`, the “% Inhibition” value is on record as -11% and the Z score was found to be 1.37.
As for `CCn1nc(Cc2c(Cl)cccc2Cl)nc1[C@H]1CCS(=O)(=O)C1`, the “% Inhibition” value is recorded as -5% and the Z score was 0.56.
On the same counts, the results for `Cc1cc(F)ccc1[C@@H]1CCCN1S(=O)(=O)c1ccnn1C` are -9% and 1.16.
On the same counts, the results for `O=C(CNS(=O)(=O)c1cc(F)c(F)cc1F)Nc1cccnc1` are 1% and -0.21.
